Reference: PubChem BioAssay AID588855 (National Center for Advancing Translational Sciences (NCATS), 2011)
Where “and” joins values, the source holds several entries; their conditions need not be identical. Equal values may be shown once. The whole screen tested about 410,000 compounds, of which about 5,000 (1.2%) were called active. The shares of active, inactive and inconclusive entries below differ from those in the screen. The call rests on the fitted dose curve; in most records, active means well fitted inhibition curve with a large enough effect; inconclusive means small, poorly fitted or top-dose-only effect; inactive means no such curve, though single readings can be large or run the other way. Potencies beside an inconclusive call are fits to weak or partial responses and may not hold up.

test: qHTS for Inhibitors of TGF-b; settings: HepG2 CAGA-GFP TGF-b/SMAD3 reporter, GFP fluorescence, 18 h, TGF-beta stimulated, 500 pg/mL final; series mostly up to 46.1 µM; further: nearly all actives have a fitted effect of over 65% in size
Outline: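 First, reporter cells (HEPG2 CAGA-GFP) rested 2 h at 37 degrees C. Next, compounds were pinned in and TGF-beta added to 500 pg/mL final. After 18 h, GFP was imaged per cell and summed per well.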
Potency means the concentration at half of the fitted maximal effect; tags describe the fitted curve by direction and shape.

| Compound | Potency |
| --- | --- |
| Cc1ccc(N2C(=O)/C(=C\c3ccc(C(C)C)cc3)N=C2SC2CCOC2=O)cc1 (stereo unspecified) | inconclusive: 6.31 µM [inhibitor, single point] |
| CCCCNC(=S)NCc1ccc2c(c1)cc(C)n2C | inconclusive: 17.8 µM [inhibitor, single point] |
| CN(C)C(=O)c1ccc(-c2cc3onc(-c4ccccc4)c3c(=O)n2C)cc1 | inconclusive: 3.55 µM [inhibitor, full curve] |
| Cc1ccc(CSCCNC(=O)/C=C/c2ccccc2Cl)cc1 | inconclusive: 35.5 µM [inhibitor, single point] |
| Cn1c(SCC(=O)N/N=C/C=C/c2ccco2)nc2ccccc21 | inconclusive: 35.5 µM [inhibitor, single point] |
| Cc1ccc(S(=O)(=O)N2CCC(C(=O)N/N=C/c3cccnc3)CC2)cc1 | inconclusive: 5.62 µM [inhibitor, single point] |
| COc1ccc(C)cc1NC(=O)C(=O)c1cn(CC(=O)N2CCCC2)c2ccccc12 | inactive |
| CC(C)(CNC(=O)CC1C(=O)NCCN1Cc1cccc(F)c1F)N1CCOCC1 (stereo unspecified) | inconclusive: 1 µM [inhibitor, partial curve] |
| Cc1ccc2occ(CC(=O)N(Cc3ccc(Cl)cc3)C3CCS(=O)(=O)C3)c2c1 (stereo unspecified) | inconclusive: 25.1 µM [inhibitor, single point] |
| COc1cc2c(cc1OC)C(c1cccs1)N(C(=S)NC(C)C)CC2 (stereo unspecified) | inactive |
| COc1cccc(CNC(=O)c2ccc3c(c2)c(C)c(C)n3Cc2ccccc2)c1OC | inactive |
| Cc1ccc(S(=O)(=O)NC(CC(C)C)C(=O)NCC(c2ccco2)N2CCCCC2)cc1 (stereo unspecified) | inactive |
| O=S(=O)(Nc1cc(F)ccc1F)c1ccc2[nH]c3c(c2c1)CCCC3 | inconclusive: 35.5 µM [inhibitor, single point] |
| O=C(CNc1ccc(Br)cc1)NNC1=NCCC1 | inactive |
| Cc1ccccc1C(=O)N1CCN(S(=O)(=O)c2cccs2)CC1 | inconclusive: 25.1 µM [inhibitor, single point] |
| COCCCNC(=O)/C(C#N)=C/c1c(N2CCN(c3ccccc3)CC2)nc2c(C)cccn2c1=O | inconclusive: 35.5 µM [inhibitor, single point] |
| NS(=O)(=O)c1ccc(CCNc2nccn(-c3cccc(C(F)(F)F)c3)c2=O)cc1 | inconclusive: 35.5 µM [inhibitor, partial curve, poor fit] |
| CSc1nc2c(c(=O)[nH]1)C(c1cccc(F)c1F)CC(=O)N2 (stereo unspecified) | inactive |
| COc1ccc(-c2c(-c3cc(OC)c(OC)c(OC)c3)noc2C)cn1 | inconclusive: 7.08 µM [inhibitor, partial curve, poor fit] and inconclusive: 10 µM [inhibitor, partial curve] |
| N#Cc1ccccc1NC(=O)CNc1ccccc1N1CCCCC1 | inconclusive: 35.5 µM [inhibitor, single point] |
| CCOC(=O)c1sc2ccccc2c1S(=O)(=O)Nc1ccc(CC)cc1 | inconclusive: 35.5 µM [inhibitor, single point] |
| COc1ccc(-c2cc(C(F)(F)F)nc(S(C)(=O)=O)n2)cc1 | active: 3.55 µM |

| Compound | Potency |
| --- | --- |
| O=C(Nc1ccc(Cl)cn1)c1ccc([N+](=O)[O-])o1 | active: 11.2 µM |
| CCOC(=O)C1CCN(C(c2cc3cc(C)cc(C)c3[nH]c2=O)c2nnnn2C2CCCCC2)CC1 (stereo unspecified) | inconclusive: 35.5 µM [inhibitor, single point] |
| CCOc1ccc(N2CC(NC(=O)/C=C\c3ccc4c(c3)OCO4)CC2=O)cc1 (stereo unspecified) | inactive |
| O=C(O)/C=C/C(=O)c1c(-c2ccccc2)[nH]c2ccccc12 | active: 12.6 µM |
| CCc1ccc(NC(=O)CO/N=C(\C)c2cc3ccccc3o2)cc1 | inactive |
| COc1cc(-c2cc(NC(C)=O)c3ncc(-c4ccccc4)n3c2)cc(OC)c1OC | inactive |
| N=c1c(C(=O)NCCc2ccccc2)cc2c(=O)n3ccccc3nc2n1Cc1ccco1 | inactive |
| O=C(Nc1ccc(F)c(F)c1)c1cc(S(=O)(=O)NC2CCCCCC2)ccc1F | inconclusive: 8.91 µM [inhibitor, partial curve, poor fit] |
| Cc1ccc(C)c(N2CCN(C(=O)CCc3nc(-c4ccccc4Cl)no3)CC2)c1 | inconclusive: 17.8 µM [inhibitor, single point] |
| CC1CCCN(CCCNC(=O)c2cc3c(s2)-c2ccccc2OC3)C1 (stereo unspecified) | inconclusive: 20 µM [inhibitor, single point] |
| Cc1cccnc1NC(=S)NCCc1ccccc1 | inconclusive: 2.82 µM [inhibitor, partial curve, poor fit] |
| CCCN(CCC)S(=O)(=O)c1ccc2c(c1)N(CC(=O)NCc1ccc(F)cc1Cl)C(=O)CS2 | inconclusive: 7.08 µM [inhibitor, full curve, poor fit] |
| CCCCNc1nc(NC)nc(Cl)c1SC | inconclusive: 35.5 µM [inhibitor, single point] |
| O=C(C1=C[C@H](c2ccc(C(F)(F)F)cc2)C[C@H](OCc2ccc(CO)cc2)O1)N1CCCCCCC1 | inconclusive: 35.5 µM [inhibitor, single point] |
| CSc1ncccc1C(=O)N(C)CC(=O)Nc1ccc(Cl)c(C(F)(F)F)c1 | inactive |
| CC(C)CC1NC(=O)N(Cc2cc(=O)n3ccsc3n2)C1=O (stereo unspecified) | inconclusive: 35.5 µM [inhibitor, single point] |
| COc1ccc(CNC(=O)C2CCCN(C(=O)N3CCOc4ccccc43)C2)cc1 (stereo unspecified) | inconclusive: 20 µM [inhibitor, single point] |
| CC1CCN(CCC(=O)Nc2ccc(F)c(F)c2)CC1 | inactive |
| CCC[C@H]1COCCS(=O)(=O)N1Cc1cccc(F)c1 | inactive |
| O=C(Nc1cccc(-c2csc(Nc3ccccc3)n2)c1)c1ccccc1 | inconclusive: 22.4 µM [inhibitor, single point] |
| CCN(CC)S(=O)(=O)c1ccc(N2CCCC2)c(NC(=O)c2ccc([N+](=O)[O-])o2)c1 | active: 11.2 µM |
| CCOc1ccc(C2c3c(oc4cc(C)c(C)cc4c3=O)C(=O)N2CCCN2CCOCC2)cc1 (stereo unspecified) | inactive |

| Compound | Potency |
| --- | --- |
| COc1ccc(C(=O)N2N=C(c3ccc(NS(C)(=O)=O)cc3)CC2c2cccs2)cc1 (stereo unspecified) | inconclusive: 35.5 µM [inhibitor, single point] |
| COc1ccc(CN2CCN(Cc3ccccc3C(F)(F)F)CC2)c(OC)c1 | inconclusive: 35.5 µM [inhibitor, partial curve, poor fit] |
| Cc1ccccc1OCC(=O)NNC(=O)C1CCN(c2ncnc3sc(C)c(C)c23)CC1 | inconclusive: 10 µM [inhibitor, partial curve, poor fit] |
| CCCOC(=O)c1ccc(S(N)(=O)=O)o1 | inactive |
| Cc1ccc(-c2n[nH]c3c2C(c2cccc(O)c2)N(c2ccc(C(=O)O)cc2)C3=O)cc1 (stereo unspecified) | inconclusive: 11.2 µM [inhibitor, partial curve, poor fit] |
| CCc1nc2ccc(C(=O)NCCOc3ccc(OC)cc3)cn2c1N(C)Cc1ccc(OC)cc1 | inconclusive: 31.6 µM [inhibitor, single point] |
| N#Cc1ccc(-c2nc3c4ccccc4ccn3c2Cc2cccc(Cl)c2)cc1 | inconclusive: 14.1 µM [inhibitor, partial curve, poor fit] |
| CCn1c(SCC(=O)Nc2cccc(F)c2)nnc1-c1cc2cc(Br)ccc2o1 | inconclusive: 35.5 µM [inhibitor, single point] |
| COc1ccc(S(=O)(=O)N(C)[C@H]2C[C@H]3c4cc(-c5ccccc5)ccc4CCN3C(=O)[C@H]2[C@H](C)O)cc1 | inconclusive: 11.2 µM [inhibitor, partial curve] |
| O=C(CCNC(=O)c1ccc(Cl)cc1)Nc1cccc(S(=O)(=O)N2CCCCC2)c1 | inactive |
| COc1ccc(C2=C(SC)CC2=NC(C)(C)C)cc1 | inactive |
| CC1=NN(c2ccc(C)c(C)c2)C(=O)C1C(c1cccc(O)c1)C1C(=O)N(c2ccc(C)c(C)c2)N=C1C (stereo unspecified) | inconclusive: 8.91 µM [inhibitor, partial curve, poor fit] |
| Cc1ccc2c(/C=C/c3c[nH]c4ccccc34)ccnc2c1C | inconclusive: 35.5 µM [inhibitor, single point] |
| CCN(CC)CCNC(=O)c1ccc(CSc2nc3ccncc3n2Cc2cccc(F)c2)cc1 | inactive |
| CCCCN(C(=O)c1c(C)[nH]c(C(=O)OCC)c1C)c1ccccc1 | inconclusive: 35.5 µM [inhibitor, single point] |
| NC(=O)CN(c1ccccc1)C1SC(=O)N(Cc2ccccc2)C1=O (stereo unspecified) | inconclusive: 28.2 µM [inhibitor, single point] |
| C=CCSc1nnc2c(n1)-c1cccc3cccc-2c13 | inconclusive: 25.1 µM [inhibitor, single point] |
| CCC(NC(=O)c1cc(COc2cncc(Cl)c2)on1)c1ccc(C)cc1 (stereo unspecified) | inconclusive: 22.4 µM [inhibitor, single point] |
| O=C(c1noc2c1CCCCC2)N1CCN(c2cccc(C(F)(F)F)c2)CC1 | inconclusive: 14.1 µM [inhibitor, partial curve] |
| Cc1ccccc1OC(=O)CSc1nnc(-c2ccc3c(c2)OCO3)o1 | inconclusive: 6.31 µM [inhibitor, single point] |
| Cc1ccc(C(=O)C=CNNC(=O)c2ccccc2)cc1 | inconclusive: 22.4 µM [inhibitor, single point] |
| COC(=O)c1cc(NC(=O)c2nn(C)c3c2CSc2ccccc2-3)cc(C(=O)OC)c1 | inactive |
